Data published in the supplement of paper PMC10126150.
Values marked as one replicate rest on one cluster of the flow cell; about a third of the high ones do not repeat.

Test system: ATP
Experiment: switch fluorescence ratio, 500 uM ATP over buffer (Cy3 cluster intensity, sum of 5 cycles each) (fold (ratio)); higher = stronger signal-on switching upon ATP binding; sequences stand for … in TCGTCGGCAGCGTCAGATGTGTATAAGAGACAGTTTTTTTTTTTTTTTTTTTTTTTTT…TC
Conditions: aptamer strand: ATP DNA aptamer (quencher-CACCTGGGGGAGTATTGCGGAGGAAGG + anchor), 100 nM annealed; ATP concentration: 500 uM; one replicate
Method in brief: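 The quencher-labelled ATP aptamer, at 100 nM, was annealed to Cy3-labelled switching-strand clusters on a modified Illumina MiSeq flow-cell. The clusters were imaged in selection buffer, then after 15 min with 500 uM ATP at 22 °C, and this buffer/ATP cycle ran five times with NaOH stripping and re-annealing between runs. Per-cluster fluorescence ratios, summed target-cycle over summed buffer-cycle Cy3 intensity, were averaged per switch-domain sequence. Clusters outside 100-1000 RFU were excluded.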
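Further: ATP exposure 15 min at 22 °C before imaging.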

Sequence	switch fluorescence ratio
CCAGGCCAGT	1.04
TGGTACTTGG	0.994
AAAAAATCTG	1.13
TCACGATTGC	1.01
AAGAGGTGAT	1.03
AAATGCCGAG	0.999
AAAACAGCTT	0.997
TCAGGGTCCA	0.97
AGGAATGTAC	1.11
TCGTGTCCCG	1.01
CTCGTCTTTG	1.01
ATAGGGCGCG	1.05
ATTACGACGG	1.06
GTGTGGAGTG	1.01
GAGTTGTGCT	0.981
GTGTTTCATG	1.02
ACAGGGGGT	1.08
CTGGACATG	1.14
GCCCTGGTAA	0.987
GTGAATGATA	0.976
TCGTATATGG	1.03
CTCATGCGGC	1.32
CTGTTAGTGG	0.982
CTAGGTCTAA	1.01
GGAGTACACG	0.905
TCGTTGGGT	1.04

Sequence	switch fluorescence ratio
TACCTAGTAT	0.977
GGTCATTCGG	0.974
AACATGAACT	1
CCTTGTCCGG	1.11
CGTCTTCTTT	0.973
CTCATATGTG	1.01
GTCCTATCAC	0.979
CGAGGTCCTG	0.951
TCCATCGCCA	1.97
GCAATAGGTC	1.82
AGCGGCTCA	1.02
ATGTACCTCT	1.04
TCAACTTTGA	1.02
CAGGTGGCTT	1.3
GTGGTAGAAC	0.976
GGCCTGCTA	0.999
TCCCCTTCT	1.04
TTAAAGCCGT	1.01
CCTTCTTTAT	0.993
CACGAGATCC	0.962
AGGGGTTA	1.01
TCCAAGTCGC	1.07
GTGGGAGC	1.1
TTGATAGTCT	0.873
CTGAAGAGTC	1.01
TGTGACGCTC	1.04

Sequence	switch fluorescence ratio
TAGTCAGCAG	1.05
CAGCGGCTAC	2.72
AGGGGAGCTC	1.01
TAGCTTTCCC	1.13
AAAAAGAGGC	1.03
GTCCCTCGA	1.04
GCCAGGACGT	0.991
TAGTTTCGAC	0.993
ATTTGGGCAC	1.02
GCATGACAAT	1.03
TATTACATAT	1.06
ATTAGATTAT	0.998
CTGTTAAACG	0.956
CTTGGTGGTA	0.957
AGTCTGCCTT	1.06
GAACCGAAAT	1.1
CATTAGCGTG	1.03
AATCTTGTTT	1
TCGATAGTTT	0.999
GGAGCGCAAG	1.04
ACAAAACAGA	0.992
TTGTTAGTAG	1.05
CTATATCGGT	0.97
CATGTCGTCT	1.05
TAAAGAGGTT	1.26
AAAGGCGTTG	0.966

Sequence	switch fluorescence ratio
TAGTTTGTGC	1.04
TGTAGGGGG	1.02
TATGTTACT	1.02
TGGGGAAGAC	1.3
AGATTAGATC	1.02
ATTGTATAAT	0.989
TGTACTAAAA	0.992
TGGCCGTCTC	1.03
GTGGGCGACT	1.03
TACAAAGCGG	1.03
TATAATTGTA	0.998
AAGAGAAAGC	1.02
TGTCATGCAG	1.01
GAAACGCTAA	1.14
ATCCTTGGCA	1.04
GGATTATCAC	0.976
AAGAAAAGAC	1.02
TTGTTTCATT	0.977
TGGACCCGGA	0.886
TCGGTAGAAC	1.01
AAATAGGGAG	0.962
GATTAAAAAC	1.05
CCACTAAGGA	1
GTTCTCGATG	0.946
TAGTCCATTC	0.927
CTCTCTATAG	1.28

Sequence	switch fluorescence ratio
CTCATTAAAT	0.975
GCTTACGTTA	1.17
ATGGCCCGGG	0.85
GATTTAGACA	1.03
CACTCTAAGT	1
GGTTAATGAG	0.991
GGGTAGG	0.99
TTACGCCGCA	1.28
GGGTACCTCT	1.02
CTTATTATGC	0.996
TAGTCTTTCG	0.995
TATGCCGGT	0.998
GCAATTGTT	1.03
TGAGGGTATA	1.05
TTGGCAGATC	1.07
AGCTACGTCC	1.08
GAACTAGTGC	0.945
CGCGGTCGCA	1.03
CACAGTGCGA	0.999
TAATGTTGT	1.02
CCCCGTTCGT	1.09
GGAATTGGCC	1.02
GAGCCATACG	1.87
GATCGGGTGC	1.09
CAGTTAGAAT	0.953
TCCCTACTTA	1.01

Sequence	switch fluorescence ratio
CACTGGGTT	0.989
TTCCTAGCGG	0.987
GACGGCGTAG	0.999
AGAGCTAAAT	0.96
TTCATTGTAG	0.976
CTGTTGGATG	1.01
GTCTAATAAG	0.977
GCTGATCCGG	1.01
ATATTTCAGT	1.01
ACGAGCCACA	1.09
CATCATTCTT	0.979
AGGTAGGC	1.04
ACGATCAGGG	1.03
TGCAAAAAAA	1.05
TTTAACCTTC	2.26
TTTGTCATAA	1.02
CAGGAAAGT	0.986
TATGCTTCTC	0.968
TGGATGCGTA	0.984
CTTGTTGTGA	0.955
CAGGGAGTCG	1.05
AAGCCGCAAA	1.87
TTCAAACCGC	1.16
CATCTAAGG	1.01
TGACCGGAA	1.1
GCGAGATAGC	0.995

Sequence	switch fluorescence ratio
GCTTCAATAA	1.05
CCCTTGCTTC	1.08
ATCATATTCT	1.03
CGGCTAGCAG	1
CTAGGTTTT	1.02
AAAGATGGCC	0.957
ACCGGATCAG	1.01
CGACGCAGTT	4.89
GTTCCTTTGC	1.32
CTTGATCGAA	1.01
AGAAGCGATG	0.985
CAAGGTATGC	1.01
AGCGAGTGAG	0.991
ATGGTTTGA	0.94
TTTGAGGCGT	1.06
CATACACCAT	1.1
GTGAGGTGCG	0.993
CGTGACAGTA	1.02
CATTCGCAGG	4.44
TCAACATGGG	0.971
AACGTAAGGT	1.04
AAAGTCCGCA	2.13
TCGAAGCATT	2.9
CCGTGTTAGA	1.04
CATATGTGAT	0.986
CGTCATGGGA	1.01

Sequence	switch fluorescence ratio
GTGCACCGAT	1.06
AAATAGATGC	1.01
TCGTTTGTGA	1.04
TATGTAGACT	0.989
GCATGAAGAC	1.08
AAGTTATCGG	1.01
GGAAAGTTCA	1
TAGGCTGACA	1.02
TGCTGGAACC	0.981
GTCACCCCGA	1.14
TGTGTGCTGG	0.977
GTAATGAGGG	0.949
AACCTTTTGT	1.02
ATTCCCCAGA	1.14
CCTTGTTGGT	1.03
CCTGATTCAT	1.02
CAAATCTTTA	1
CCTTTTGCAT	2.07
GTGACTCTGG	1.01
